Experimental findings from article PMC7355546, “Lignans, Amides, and Saponins from Haplophyllum tuberculatum and Their Antiprotozoal Activity” (Molecules, 2020) are described below.

In this test the test system is L. donovani (MHOM/ET/67/L82) axenic amastigotes. The test can be described thus: Activity against Leishmania donovani axenic amastigotes (resazurin). The following applies: for L. donovani SI (selectivity index): IC50 in L6 cells divided by IC50 in L. donovani; for IC50: mean of at least two independent replicates ± absolute deviation. For orientation: Resazurin is reduced to fluorescent resorufin, in cell work by metabolically active cells.

Where [1] appears, read: Leishmania donovani, read-out: L. donovani IC50, axenic amastigotes MHOM-ET-67/L82.

Molecules are shown by their SMILES. Values joined by “and” are separate entries in the source; they are usually repeats but may differ in a detail not shown here. Equal entries are not always repeated. Where two headings read alike, the source gives them in different places.

`COc1cc([C@H]2O[C@@H](c3ccc(O)c(OC)c3)[C@@H](C)[C@H]2C)ccc1O` [Compound 1, tetrahydrofuroguaiacin B]: the “L. donovani SI (selectivity index)” value turned out to be 4.2. Also, the IC50 under setting [1] was 22.6 ± 6.5 µM.

As for `COc1cc([C@H]2O[C@@H](c3ccc(O)c(OC)c3)[C@H](C)[C@@H]2C)ccc1O` [Compound 2, nectandrin B], the “L. donovani SI (selectivity index)” value was 26 and 25.5. Further, the IC50 under setting [1] worked out at 5 µM. Moreover, the IC50 (read-out: L. donovani IC50, axenic amastigotes MHOM-ET-67/L82) is 4.5 ± 1 µM.

Take `COc1cc(CCC(=O)NCCc2ccc(O)cc2)ccc1O` [Compound 5, dihydro-feruloyltyramine]: under setting [1], the IC50 is 141 ± 1.9 µM.

For `COc1cc(/C=C/C(=O)NCCc2ccc(O)cc2)ccc1O` [Compound 6, (E)-N-feruloyltyramine], the “L. donovani SI (selectivity index)” value was 2.5. Besides, the IC50 under setting [1] was 99.4 ± 9.3 µM.

For the compound `COc1cc(C(=O)/C(C)=C(/C)C(=O)c2ccc(O)c(OC)c2)ccc1O` [Compound 7, furoguaiaoxidin], the IC50 under setting [1] was 136 ± 1.5 µM.

For the compound `COc1cc(/C=C/C(=O)NCCCCNC(=O)/C=C/c2ccc(O)c(OC)c2)ccc1O` [Compound 8, N,N′-diferuloylputrescine], the “L. donovani SI (selectivity index)” value turned out to be 1.5. Further, the IC50 under setting [1] is 97 ± 0.9 µM.

For `CCOC(CNC(=O)/C=C/c1ccc(O)c(OC)c1)c1ccc(O)cc1` (stereo not shown) [Compound 9, 7′-ethoxy-feruloyltyramine], the “L. donovani SI (selectivity index)” value was determined as 3.0. Moreover, under setting [1], the IC50 amounted to 69.6 ± 4.6 µM.

On to `COc1cc(CC(C)C(CO)Cc2ccc(O)c(OC)c2)ccc1O` (stereo not shown) [Compound 10, 3,3′-dimethoxy-4,4′-dihydroxylignan-9-ol], for which the “L. donovani SI (selectivity index)” value is given as 2.3. Also, the IC50 under setting [1] amounted to 55.3 ± 3 µM.

Consider `CCCCCCCCCCCCCCCCOP(=O)([O-])OCC[N+](C)(C)C` [miltefosine, reference compound], for which the IC50 under setting [1] stood at 0.5 µM.
